Laboratory results as given in publication PMC12820563, “FoxP3 forms a head-to-head dimer in vivo and stabilizes its multimerization on adjacent microsatellites”.
The other results are listed elsewhere or left out.

Target: T1, MBP-FoxP1dN (Mus musculus, UniProt P58462 326-579)
T1 sequence: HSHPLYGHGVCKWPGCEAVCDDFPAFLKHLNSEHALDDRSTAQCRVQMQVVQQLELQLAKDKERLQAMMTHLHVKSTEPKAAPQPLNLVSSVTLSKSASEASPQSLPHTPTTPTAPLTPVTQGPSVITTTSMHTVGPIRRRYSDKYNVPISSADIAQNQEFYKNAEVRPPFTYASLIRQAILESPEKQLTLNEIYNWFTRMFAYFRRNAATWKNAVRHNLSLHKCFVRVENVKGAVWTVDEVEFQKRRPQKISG
Test: PD-seq (MBP pull-down with sequencing); 20 mM Tris-HCl pH 7.5, 100 mM NaCl, 1.5 mM MgCl2, 0.4 uM protein, 0.1 uM dsDNA library, 30 min, room temperature, amylose pull-down; high values mean tight binding
Conditions: protein: recombinant; tags: His6-MBP; chain copies: 2; dsDNA, one strand shown
Method in brief: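 Mouse FoxP3 or FoxP1 fragment lacking the N-terminus, His6-MBP-tagged and expressed in E. coli, was incubated at 0.4 µM with 0.1 µM Klenow-filled degenerate double-stranded DNA library for 30 min at room temperature in Tris pH 7.5 buffer with NaCl and MgCl2. Complexes captured on amylose resin were washed three times and their DNA sequenced on Illumina. Binding is reads-per-million enrichment of pull-down over input, replicates pooled.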

Sequence | binding signal
GATGATTGTTCTCCCAGCTGATGAATTCAAAAGATCGAGTAAACAAATTTTCCTAATCTTTCTGTTCAAGCGCCATCTAC | 0.845 RPM ratio (pull-down/input)
GATGATTGTTCTCCCAGCTGATGAATTCCTATGGTCGAGTAAACAAATTTTCCTAATCTTTCTGTTCAAGCGCCATCTAC | 0.848 RPM ratio (pull-down/input)
GATGATTGTTCTCCCAGCTGATGAATTACAACGTTCGAGTAAACAAATTTTCCTAATCTTTCTGTTCAAGCGCCATCTAC | 1.24 RPM ratio (pull-down/input)
GATGATTGTTCTCCCAGCTGATGAATTGAGCCGTTCGAGTAAACAAATTTTCCTAATCTTTCTGTTCAAGCGCCATCTAC | 0.812 RPM ratio (pull-down/input)
GATGATTGTTCTCCCAGCTGATGAATTTCTGCTTTCGAGTAAACAAATTTTCCTAATCTTTCTGTTCAAGCGCCATCTAC | 1.27 RPM ratio (pull-down/input)
GATGATTGTTCTCCCAGCTGATGAATTGGCGGGCTCGAGTAAACAAATTTTCCTAATCTTTCTGTTCAAGCGCCATCTAC | 0.734 RPM ratio (pull-down/input)
GATGATTGTTCTCCCAGCTGATGAATTCGTTTAATCGAGTAAACAAATTTTCCTAATCTTTCTGTTCAAGCGCCATCTAC | 0.974 RPM ratio (pull-down/input)
GATGATTGTTCTCCCAGCTGATGAATTGTGGAAATCGAGTAAACAAATTTTCCTAATCTTTCTGTTCAAGCGCCATCTAC | 1.12 RPM ratio (pull-down/input)
GATGATTGTTCTCCCAGCTGATGAATTTCTGGACTCGAGTAAACAAATTTTCCTAATCTTTCTGTTCAAGCGCCATCTAC | 0.827 RPM ratio (pull-down/input)
GATGATTGTTCTCCCAGCTGATGAATTTGATCAATCGAGTAAACAAATTTTCCTAATCTTTCTGTTCAAGCGCCATCTAC | 0.968 RPM ratio (pull-down/input)
GATGATTGTTCTCCCAGCTGATGAATTGTGACGTTCGAGTAAACAAATTTTCCTAATCTTTCTGTTCAAGCGCCATCTAC | 1.19 RPM ratio (pull-down/input)
GATGATTGTTCTCCCAGCTGATGAATTTGACTGGTCGAGTAAACAAATTTTCCTAATCTTTCTGTTCAAGCGCCATCTAC | 0.789 RPM ratio (pull-down/input)
GATGATTGTTCTCCCAGCTGATGAATTAGAGCAGTCGAGTAAACAAATTTTCCTAATCTTTCTGTTCAAGCGCCATCTAC | 0.822 RPM ratio (pull-down/input)
GATGATTGTTCTCCCAGCTGATGAATTTACGCCGTCGAGTAAACAAATTTTCCTAATCTTTCTGTTCAAGCGCCATCTAC | 1.17 RPM ratio (pull-down/input)
GATGATTGTTCTCCCAGCTGATGAATTCGGGTAATCGAGTAAACAAATTTTCCTAATCTTTCTGTTCAAGCGCCATCTAC | 1.18 RPM ratio (pull-down/input)
GATGATTGTTCTCCCAGCTGATGAATTCGATTCCTCGAGTAAACAAATTTTCCTAATCTTTCTGTTCAAGCGCCATCTAC | 0.749 RPM ratio (pull-down/input)
GATGATTGTTCTCCCAGCTGATGAATTCGATGCCTCGAGTAAACAAATTTTCCTAATCTTTCTGTTCAAGCGCCATCTAC | 0.933 RPM ratio (pull-down/input)
GATGATTGTTCTCCCAGCTGATGAATTGTGTCTGTCGAGTAAACAAATTTTCCTAATCTTTCTGTTCAAGCGCCATCTAC | 1.09 RPM ratio (pull-down/input)
GATGATTGTTCTCCCAGCTGATGAATTGTAGTCATCGAGTAAACAAATTTTCCTAATCTTTCTGTTCAAGCGCCATCTAC | 1.14 RPM ratio (pull-down/input)
GATGATTGTTCTCCCAGCTGATGAATTGTGAACGTCGAGTAAACAAATTTTCCTAATCTTTCTGTTCAAGCGCCATCTAC | 0.982 RPM ratio (pull-down/input)
GATGATTGTTCTCCCAGCTGATGAATTTGGGCAGTCGAGTAAACAAATTTTCCTAATCTTTCTGTTCAAGCGCCATCTAC | 0.806 RPM ratio (pull-down/input)

Sequence | binding signal
GATGATTGTTCTCCCAGCTGATGAATTAAACAACTCGAGTAAACAAATTTTCCTAATCTTTCTGTTCAAGCGCCATCTAC | 1.84 RPM ratio (pull-down/input)
GATGATTGTTCTCCCAGCTGATGAATTCGATTAATCGAGTAAACAAATTTTCCTAATCTTTCTGTTCAAGCGCCATCTAC | 0.949 RPM ratio (pull-down/input)
GATGATTGTTCTCCCAGCTGATGAATTATTAAAGTCGAGTAAACAAATTTTCCTAATCTTTCTGTTCAAGCGCCATCTAC | 1.1 RPM ratio (pull-down/input)
GATGATTGTTCTCCCAGCTGATGAATTGGAGTCCTCGAGTAAACAAATTTTCCTAATCTTTCTGTTCAAGCGCCATCTAC | 0.777 RPM ratio (pull-down/input)
GATGATTGTTCTCCCAGCTGATGAATTACGTCCATCGAGTAAACAAATTTTCCTAATCTTTCTGTTCAAGCGCCATCTAC | 1.05 RPM ratio (pull-down/input)
GATGATTGTTCTCCCAGCTGATGAATTGTGTTTCTCGAGTAAACAAATTTTCCTAATCTTTCTGTTCAAGCGCCATCTAC | 1.6 RPM ratio (pull-down/input)
GATGATTGTTCTCCCAGCTGATGAATTCTCCCAATCGAGTAAACAAATTTTCCTAATCTTTCTGTTCAAGCGCCATCTAC | 0.958 RPM ratio (pull-down/input)
GATGATTGTTCTCCCAGCTGATGAATTTATCTCATCGAGTAAACAAATTTTCCTAATCTTTCTGTTCAAGCGCCATCTAC | 1.3 RPM ratio (pull-down/input)
GATGATTGTTCTCCCAGCTGATGAATTGTGTCCATCGAGTAAACAAATTTTCCTAATCTTTCTGTTCAAGCGCCATCTAC | 1.16 RPM ratio (pull-down/input)
GATGATTGTTCTCCCAGCTGATGAATTACTCTGTTCGAGTAAACAAATTTTCCTAATCTTTCTGTTCAAGCGCCATCTAC | 1.04 RPM ratio (pull-down/input)
GATGATTGTTCTCCCAGCTGATGAATTCTTGAATTCGAGTAAACAAATTTTCCTAATCTTTCTGTTCAAGCGCCATCTAC | 0.939 RPM ratio (pull-down/input)
GATGATTGTTCTCCCAGCTGATGAATTTTTCTCCTCGAGTAAACAAATTTTCCTAATCTTTCTGTTCAAGCGCCATCTAC | 0.892 RPM ratio (pull-down/input)
GATGATTGTTCTCCCAGCTGATGAATTGAGCCTATCGAGTAAACAAATTTTCCTAATCTTTCTGTTCAAGCGCCATCTAC | 0.845 RPM ratio (pull-down/input)
GATGATTGTTCTCCCAGCTGATGAATTCTTGGAATCGAGTAAACAAATTTTCCTAATCTTTCTGTTCAAGCGCCATCTAC | 0.843 RPM ratio (pull-down/input)
GATGATTGTTCTCCCAGCTGATGAATTCCATACGTCGAGTAAACAAATTTTCCTAATCTTTCTGTTCAAGCGCCATCTAC | 0.88 RPM ratio (pull-down/input)
GATGATTGTTCTCCCAGCTGATGAATTCTCTGGTTCGAGTAAACAAATTTTCCTAATCTTTCTGTTCAAGCGCCATCTAC | 0.858 RPM ratio (pull-down/input)
GATGATTGTTCTCCCAGCTGATGAATTCTGCCCTTCGAGTAAACAAATTTTCCTAATCTTTCTGTTCAAGCGCCATCTAC | 0.806 RPM ratio (pull-down/input)
GATGATTGTTCTCCCAGCTGATGAATTCGCTTAGTCGAGTAAACAAATTTTCCTAATCTTTCTGTTCAAGCGCCATCTAC | 0.813 RPM ratio (pull-down/input)
GATGATTGTTCTCCCAGCTGATGAATTTCCGGCTTCGAGTAAACAAATTTTCCTAATCTTTCTGTTCAAGCGCCATCTAC | 0.773 RPM ratio (pull-down/input)
GATGATTGTTCTCCCAGCTGATGAATTGGAGCGTTCGAGTAAACAAATTTTCCTAATCTTTCTGTTCAAGCGCCATCTAC | 0.874 RPM ratio (pull-down/input)
GATGATTGTTCTCCCAGCTGATGAATTAACAATCTCGAGTAAACAAATTTTCCTAATCTTTCTGTTCAAGCGCCATCTAC | 1.19 RPM ratio (pull-down/input)

Sequence | binding signal
GATGATTGTTCTCCCAGCTGATGAATTGAGACAATCGAGTAAACAAATTTTCCTAATCTTTCTGTTCAAGCGCCATCTAC | 1.17 RPM ratio (pull-down/input)
GATGATTGTTCTCCCAGCTGATGAATTAGCGGGGTCGAGTAAACAAATTTTCCTAATCTTTCTGTTCAAGCGCCATCTAC | 0.83 RPM ratio (pull-down/input)
GATGATTGTTCTCCCAGCTGATGAATTTACAACTTCGAGTAAACAAATTTTCCTAATCTTTCTGTTCAAGCGCCATCTAC | 1.38 RPM ratio (pull-down/input)
GATGATTGTTCTCCCAGCTGATGAATTCGTACGGTCGAGTAAACAAATTTTCCTAATCTTTCTGTTCAAGCGCCATCTAC | 0.892 RPM ratio (pull-down/input)
GATGATTGTTCTCCCAGCTGATGAATTTCCCACCTCGAGTAAACAAATTTTCCTAATCTTTCTGTTCAAGCGCCATCTAC | 0.829 RPM ratio (pull-down/input)
GATGATTGTTCTCCCAGCTGATGAATTGCAAGTATCGAGTAAACAAATTTTCCTAATCTTTCTGTTCAAGCGCCATCTAC | 1.29 RPM ratio (pull-down/input)
GATGATTGTTCTCCCAGCTGATGAATTTAACCTTTCGAGTAAACAAATTTTCCTAATCTTTCTGTTCAAGCGCCATCTAC | 0.911 RPM ratio (pull-down/input)
GATGATTGTTCTCCCAGCTGATGAATTCGGGGCTTCGAGTAAACAAATTTTCCTAATCTTTCTGTTCAAGCGCCATCTAC | 0.802 RPM ratio (pull-down/input)
GATGATTGTTCTCCCAGCTGATGAATTAAGGAGCTCGAGTAAACAAATTTTCCTAATCTTTCTGTTCAAGCGCCATCTAC | 0.828 RPM ratio (pull-down/input)
GATGATTGTTCTCCCAGCTGATGAATTAATCAGCTCGAGTAAACAAATTTTCCTAATCTTTCTGTTCAAGCGCCATCTAC | 0.867 RPM ratio (pull-down/input)
GATGATTGTTCTCCCAGCTGATGAATTTTGACAGTCGAGTAAACAAATTTTCCTAATCTTTCTGTTCAAGCGCCATCTAC | 0.923 RPM ratio (pull-down/input)
GATGATTGTTCTCCCAGCTGATGAATTTAGCGTGTCGAGTAAACAAATTTTCCTAATCTTTCTGTTCAAGCGCCATCTAC | 0.999 RPM ratio (pull-down/input)
GATGATTGTTCTCCCAGCTGATGAATTGTTCAACTCGAGTAAACAAATTTTCCTAATCTTTCTGTTCAAGCGCCATCTAC | 1.17 RPM ratio (pull-down/input)
GATGATTGTTCTCCCAGCTGATGAATTGCGGCGTTCGAGTAAACAAATTTTCCTAATCTTTCTGTTCAAGCGCCATCTAC | 0.991 RPM ratio (pull-down/input)
GATGATTGTTCTCCCAGCTGATGAATTCGACCAATCGAGTAAACAAATTTTCCTAATCTTTCTGTTCAAGCGCCATCTAC | 0.947 RPM ratio (pull-down/input)
GATGATTGTTCTCCCAGCTGATGAATTTACACATTCGAGTAAACAAATTTTCCTAATCTTTCTGTTCAAGCGCCATCTAC | 1.6 RPM ratio (pull-down/input)
GATGATTGTTCTCCCAGCTGATGAATTAGGGCATTCGAGTAAACAAATTTTCCTAATCTTTCTGTTCAAGCGCCATCTAC | 1.1 RPM ratio (pull-down/input)
GATGATTGTTCTCCCAGCTGATGAATTGTACAGATCGAGTAAACAAATTTTCCTAATCTTTCTGTTCAAGCGCCATCTAC | 0.911 RPM ratio (pull-down/input)
GATGATTGTTCTCCCAGCTGATGAATTTGGTTGCTCGAGTAAACAAATTTTCCTAATCTTTCTGTTCAAGCGCCATCTAC | 0.997 RPM ratio (pull-down/input)
GATGATTGTTCTCCCAGCTGATGAATTATAGGCATCGAGTAAACAAATTTTCCTAATCTTTCTGTTCAAGCGCCATCTAC | 1.07 RPM ratio (pull-down/input)
GATGATTGTTCTCCCAGCTGATGAATTATTCCAGTCGAGTAAACAAATTTTCCTAATCTTTCTGTTCAAGCGCCATCTAC | 1.03 RPM ratio (pull-down/input)
